# Source: paper PMC4336329 (PLoS ONE, 2015)
# Among all 310,000 compounds or so, about 14,000 (4.5%) showed an effect of 50% or more. The effect is printed as a negative number. Some of the results follow.
# Target: human ether-à-go-go-related gene (hERG) potassium channel (human, UniProt Q12809)
# Assay: primary screen, population patch clamp on CHO cells stably expressing hERG
# 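Note: peak tail current of the secondary pulse compared with the same well before compound.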
# human ether-à-go-go-related gene (hERG) potassium channel, sequence (Q12809 whole entry, looked up): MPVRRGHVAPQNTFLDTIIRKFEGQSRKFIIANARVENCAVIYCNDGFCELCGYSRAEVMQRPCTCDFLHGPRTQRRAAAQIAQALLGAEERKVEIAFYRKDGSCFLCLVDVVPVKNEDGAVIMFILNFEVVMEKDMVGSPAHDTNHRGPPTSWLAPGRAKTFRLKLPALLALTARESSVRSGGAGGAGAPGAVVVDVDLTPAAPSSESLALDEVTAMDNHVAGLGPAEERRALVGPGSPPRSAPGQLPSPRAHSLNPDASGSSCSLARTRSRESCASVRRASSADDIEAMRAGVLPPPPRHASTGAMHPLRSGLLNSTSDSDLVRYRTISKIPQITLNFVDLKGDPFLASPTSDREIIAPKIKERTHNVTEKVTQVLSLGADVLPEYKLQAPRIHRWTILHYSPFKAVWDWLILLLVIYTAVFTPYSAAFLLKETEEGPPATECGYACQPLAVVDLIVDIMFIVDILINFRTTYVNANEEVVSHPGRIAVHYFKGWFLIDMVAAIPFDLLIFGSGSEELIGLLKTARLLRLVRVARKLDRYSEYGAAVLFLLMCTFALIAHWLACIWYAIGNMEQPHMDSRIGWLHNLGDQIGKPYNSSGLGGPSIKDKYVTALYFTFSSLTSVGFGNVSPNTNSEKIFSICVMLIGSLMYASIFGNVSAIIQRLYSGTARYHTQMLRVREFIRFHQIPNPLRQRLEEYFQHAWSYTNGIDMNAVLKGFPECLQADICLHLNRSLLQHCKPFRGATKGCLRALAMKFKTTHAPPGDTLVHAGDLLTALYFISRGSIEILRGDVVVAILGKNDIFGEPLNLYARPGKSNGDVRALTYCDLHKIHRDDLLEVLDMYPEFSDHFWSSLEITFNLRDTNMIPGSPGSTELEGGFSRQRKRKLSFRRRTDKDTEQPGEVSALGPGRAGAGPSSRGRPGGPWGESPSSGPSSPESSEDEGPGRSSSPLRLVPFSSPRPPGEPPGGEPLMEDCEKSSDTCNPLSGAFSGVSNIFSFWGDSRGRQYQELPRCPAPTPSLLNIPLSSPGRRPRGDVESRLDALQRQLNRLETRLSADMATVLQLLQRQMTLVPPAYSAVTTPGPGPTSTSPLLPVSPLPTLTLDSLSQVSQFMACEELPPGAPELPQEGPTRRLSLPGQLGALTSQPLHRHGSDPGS
row,Structure (SMILES),"hERG current change (%, negative = inhibition) at 10uM [%]"
1,Cc1cccc(OC(=O)c2cn(C)nc2C(F)(F)F)c1C,-0.0278
2,COc1ccc(C(NC(=O)/C=C\c2ccco2)c2ccc(OC)c(OC)c2)cc1 (stereo not shown),-12
3,CC(C)Cc1csc(NC(=O)C(C)C)c1C(=O)O,11
4,CCCCn1c(-c2ccc(OC)cc2)nc2c(=O)n(C)c(=O)[nH]c21,7.85
5,CC1CC2(CCCC2)N(C(=O)c2ccccc2)Cc2ccccc21 (stereo not shown),5.47
6,COc1ccc(S(=O)(=O)N2CCOCC2)cc1Br,12.4
7,Cc1ccc(C2CC(=O)N(c3ccc(F)cc3)C3=C2C(=O)CCC3)cc1 (stereo not shown),0.885
8,C/C(CC(=O)Nc1ccc(N(C)C)cc1)=N\NC(=O)c1ccc(C(C)(C)C)cc1,18.2
9,Cc1cccc(C)c1N(CC(=O)NN=C1CCCCCC1)S(C)(=O)=O,-4.3
10,CC(=O)N1CCC2(CC1)CC(=O)c1cc(OCC(=O)N3CCCC3)ccc1O2,9.03
11,COc1ccc2nc(NC(=O)CSc3nnc(C)s3)sc2c1,10.4
12,Br.CCCc1nnc2n1N=C(c1ccc(C)cc1)CS2,-12.5
13,Cc1ccc(NC(=O)c2cc(-n3cnnc3)ccc2Cl)c(C)c1,-21
14,O=C(c1ncn[nH]1)N1CCN(c2nc(-c3ccccc3)cs2)CC1,0.173
15,CC(C)(C)C(=O)OCc1nc(-c2ccc(C(F)(F)F)cc2)cs1,19.4
16,COc1ccc(CCN(C)C(=O)CN2C(=O)NC3(CCCCCC3)C2=O)cc1OC,11
17,Cc1noc(/C=C/N(C)C)c1S(=O)(=O)N1CCc2ccccc21,-18.6
18,Cc1cccc(NC(=O)CSc2nnc(NC(=O)CN3CCOCC3)s2)c1,2.9
19,Cc1ccc(N=C2SC(C(=O)NCCc3ccccc3)CC(=O)N2C)cc1C (stereo not shown),-17.1
20,O=C(Nc1ccc2[nH]ccc2c1)c1cccs1,15.3
21,O=C(CCC(=O)OCC(=O)c1ccc(F)cc1)NC1CCCCC1,-5.01
22,Cc1ccc(CCNS(=O)(=O)c2cc3c(cc2Cl)NC(=O)CO3)cc1,-0.207
23,O=c1cc(O)c2sc3nc(-c4ccccc4)cc(C(F)(F)F)c3c2[nH]1,10.3
24,Cc1cc(C)c(C#N)c(SCC(=O)C2CC2)n1,8.95
25,Cc1cc2occ(CC(=O)OCC(=O)Nc3sc4c(c3C#N)CCC(C)C4)c2cc1C (stereo not shown),6.65
